# The list shows a part of the results.
# System: PfHDP1 homeodomain (GST-tagged)
# Test: gcPBM binding intensity (ln(normalized median fluorescence intensity)); higher = stronger DNA binding
# Outline: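 An Agilent 4 × 180k array of primer-extended double-stranded 36-bp intergenic genomic probes, with negative controls, was incubated for 1 h with GST-tagged P. falciparum DNA-binding domains expressed in E. coli. Alexa488 anti-GST antibody detected bound protein, scanned at 488 nm. Binding intensity is the highest Masliner-normalised natural-log median intensity across replicate spots of either probe orientation.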
row,Sequence,gcPBM binding intensity (ln)
1,AACAAATACAGACACACACACACACTAATAAAAAAA [CACACA_site8067],6.93
2,AAAAATTTTATATTCACACACATATATATATATATA [CACACA_site624],9.29
3,TATTTTTATATTTTTGCACACATTCTTTACTCTTCA [CACACA_site2211],10.6
4,GATATATATTAATATACACACACACCGATATATATA [CACACA_site8462],7.04
5,TTTTGAAACATATGATGTACACGAACATTTAAAAAA [XGTACX_site474],6.6
6,AATAAATAGATAAGCACACAAGCATATAGACATATA [CACACA_site222],6.3
7,AAATTCCACCAACACACACACATATAAATAAATAAA [CACACA_site1233],6.84
8,TTTATATTTTATAAATTATTCATAAATATATTTGTA [TGCATGCA_negctrl_site175],6.34
9,CTCTATAAATGCTGCACACACATTTAATTATTTAAG [CACACA_site2582],8.11
10,TATAAATATAAATATACACACATATTTATATTTATA [CACACA_site7053],6.52
11,TATAAATAAAAACACACACACACATATATATATATA [CACACA_site2268],9.31
12,AAATGAAATACATCCTGTACATAGTAATGCTAACAA [XGTACX_site6600],6.3
13,TTTTACAATGAAAGGTGTACAAGTAACAGTAGAACA [XGTACX_site1528],7.11
14,ATGAAAAAATTTATATGTACTTAAAATATAATCATA [XGTACX_site1228],6.13
15,TATATTATTAAGATATGTACATAATTATAAATTTAA [XGTACX_site6848],6.71
16,ATAAATAAAGGACACACACACACACTAGAAAAAAAA [CACACA_site5450],6.77
17,TTGTGCTTGATATCACGGACAAGCTCATATTATATA [XGTACX_site4553],6.03
18,AAAATAAAATTAGTTGCATGCAACTTAAACAGAAAT [TGCATGCA_site860],9.2
19,ATGGTAGTTCTCCATGCATGCCTTTTTATTATCATA [TGCATGCA_site681],6.51

row,Sequence,gcPBM binding intensity (ln)
1,TGTGCCCAAAATTATGCACACACCTAAAATTAATTT [CACACA_site2914],10.5
2,TTTTTGTAAAAACACACACACAAACAGAAAAAATAA [CACACA_site2076],7.15
3,ATTATCATAATGTTCACACATATGGTATATATAGAT [CACACA_site6113],6.59
4,ATATGTGTATGTGCGTGTACATATCTATACAGTTGT [XGTACX_site6540],7.26
5,ACTATTTAGTCTGGTGGTACTTTATATATAATTTCT [XGTACX_site5618],6.59
6,TTTTATCTTTTTTTATTTTAATGTATTATTTTTATG [XGTACX_negctrl_site24],6.61
7,ATATGTAGATGATATTATTACTTTTCAAAAATTCAA [CACACA_negctrl_site933],6.22
8,TAATAAGAAATAACAGGTACACATATATAAATATTA [XGTACX_site2976],6.32
9,AAGTATAAAAAAAGGCGTACAAAAAAAAAAAAAAAA [XGTACX_site7309],6.29
10,TTTTTCATTAATACAAGTACAAAATGATGTTGACAT [XGTACX_site1475],6
11,ATAAAAGATATTTTTACACACTTTTGATGAGATCGT [CACACA_site3053],6.31
12,TTCAAGGTTTTAGATTGTACAATTATTATATATATA [XGTACX_site8982],7.16
13,GGTTGTATAAGTTTTTGTACATATATATATATATAT [XGTACX_site7487],9.19
14,ATACCAACATATTATACACACCTTTATATTTTTTTT [CACACA_site5217],6.89
15,GAATATAATCTGTATTGTACGAAAGTTGAACACTTG [XGTACX_site8895],6.3
16,TGAGCATAAAAAGGGTGTACTTAAATATATTATATA [XGTACX_site7556],7.39
17,TTTAGATAATTCATTACACACATGTATTTATATATA [CACACA_site5847],6.46
18,TATATATATATATATATATATACAAATATATATTAT [CACACA_negctrl_site1729],9.4
19,TTGTATTATTATGTTGCACACATTTTATATAAAATA [CACACA_site3641],9.14

row,Sequence,gcPBM binding intensity (ln)
1,AAATATAAACGGCACACACACAAAAAAAGAAAAAAA [CACACA_site649],6.31
2,AGAAACCTTGTTAGTTAGCATATATATATATATATA [CACACA_negctrl_site372],9.53
3,TATTTTATACATATTTTACACACTAATATATACATA [CACACA_site7998],6.72
4,TTTATTATACAAAATTGTACTTTATAATTTTATGTA [XGTACX_site5846],6.31
5,AAATATTACGGAATAAAGAGCTTTTAAATAATTTTA [CACACA_negctrl_site1700],6.08
6,ACTTTACAATATATATGTACATATTAATAAACATAT [XGTACX_site3689],7
7,AAAATAATATATGTATGTACATATACACATATAGAA [XGTACX_site2218],6.65
8,GAGTTTTTTTAATGATGTACATTTTAAAAATAAACG [XGTACX_site1036],6.35
9,AAATGTTATAACTCTTGAAAAAACAAAATATCATCA [CACACA_negctrl_site1156],6.29
10,TAATTTCTTATGTATTGTACAAATAATGTATGATAT [XGTACX_site270],6.63
11,AATCACAAATAAAATAATATGACACAATATAAAATA [CACACA_negctrl_site537],6.47
12,TACTTACACTGTTTTTGTACTTATTTCCCTTTTATT [XGTACX_site2158],7.31
13,TTCTTGTATTTTCATAGTACATATAATGTCGTATTA [XGTACX_site600],6.71
14,GAACGCCATTCACATAAAGGGATACATAAATAAATA [XGTACX_negctrl_site330],6.24
15,GCGTTATTAAATAATTCACACACATATATATATATA [CACACA_site8711],9.16
16,AAGAAAAACTTTACGTGTACCAAACGTCATGCCAAC [XGTACX_site2575],6.21
17,ATACAAAATTTTTAAGAACACACAAAAATGTACTAT [CACACA_site8817],6.31
18,TGAGGTAACTAAATATGTACGTAACGAAGATACATA [XGTACX_site8231],6.4
